Experimental findings from paper PMC4336329 (PLoS ONE, 2015) are described below.

Structures are written as SMILES. Among all 310,000 compounds or so, about 2,200 (0.71%) showed an effect of 50% or more. Effects have a minus sign here. This is one part of the list. Where a SMILES comes first, the peptide text is derived from it. [ ]: non-standard residue; d: D form. The star is where a group is joined. ξ: configuration not given here. Cbz = O=C(OCc1ccccc1)*; ξV = CC(C)C(N)C(=O)O; OtBu = CC(C)(C)O*

The target of the assay is human ether-à-go-go-related gene (hERG) potassium channel (human, UniProt Q12809). Kind of assay: primary screen, population patch clamp on CHO cells stably expressing hERG.
human ether-à-go-go-related gene (hERG) potassium channel, sequence (Q12809 whole entry, looked up): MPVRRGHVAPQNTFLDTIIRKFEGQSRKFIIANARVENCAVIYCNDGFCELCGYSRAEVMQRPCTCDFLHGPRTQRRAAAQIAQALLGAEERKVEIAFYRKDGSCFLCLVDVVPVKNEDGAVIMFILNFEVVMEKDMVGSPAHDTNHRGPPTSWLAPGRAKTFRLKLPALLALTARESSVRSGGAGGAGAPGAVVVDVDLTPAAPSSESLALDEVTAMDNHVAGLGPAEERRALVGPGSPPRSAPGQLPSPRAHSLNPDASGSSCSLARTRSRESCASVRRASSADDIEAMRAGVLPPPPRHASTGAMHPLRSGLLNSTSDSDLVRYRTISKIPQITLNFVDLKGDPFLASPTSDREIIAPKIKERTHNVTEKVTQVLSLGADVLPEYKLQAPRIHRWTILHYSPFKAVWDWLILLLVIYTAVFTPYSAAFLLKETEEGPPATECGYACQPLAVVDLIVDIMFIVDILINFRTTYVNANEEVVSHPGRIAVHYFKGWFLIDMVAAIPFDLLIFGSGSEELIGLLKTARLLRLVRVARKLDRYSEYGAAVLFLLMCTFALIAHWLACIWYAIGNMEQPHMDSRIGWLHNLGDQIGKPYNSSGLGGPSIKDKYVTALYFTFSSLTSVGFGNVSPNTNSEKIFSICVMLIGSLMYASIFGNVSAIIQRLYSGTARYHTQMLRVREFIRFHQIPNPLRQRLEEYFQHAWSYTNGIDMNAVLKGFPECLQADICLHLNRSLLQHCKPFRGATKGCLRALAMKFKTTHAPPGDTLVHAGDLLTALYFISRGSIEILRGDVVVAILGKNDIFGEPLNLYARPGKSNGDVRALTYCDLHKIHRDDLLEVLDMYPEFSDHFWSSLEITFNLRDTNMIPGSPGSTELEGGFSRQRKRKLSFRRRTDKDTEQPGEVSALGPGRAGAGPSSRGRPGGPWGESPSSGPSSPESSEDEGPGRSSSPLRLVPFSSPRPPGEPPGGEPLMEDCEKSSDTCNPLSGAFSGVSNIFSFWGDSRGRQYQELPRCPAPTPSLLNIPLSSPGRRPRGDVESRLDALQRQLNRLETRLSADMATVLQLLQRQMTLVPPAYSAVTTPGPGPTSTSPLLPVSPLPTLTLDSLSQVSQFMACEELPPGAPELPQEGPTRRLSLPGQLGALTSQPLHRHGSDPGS
For the compound `CC(C)C(NC(=O)OCc1ccccc1)C(=O)NCC(=O)OC(C)(C)C` (centres unmarked) (Cbz-[ξV]-Gly-OtBu), the “hERG current change (%, negative = inhibition) at 1uM” value was determined as 11.3%. The value for `Cc1ccc(OCC(=O)N2N=C(c3ccc(Cl)cc3)CC2c2ccco2)c([N+](=O)[O-])n1` (centres unmarked) was -40.5%; that for `O=[N+]([O-])c1cccc(P(=O)(O)c2cccc([N+](=O)[O-])c2)c1` was 4.21%. The value for `Cc1noc(C)c1CC(=O)N1CCCC(C(=O)c2ccc(C(C)(C)C)cc2)C1` (centres unmarked) was 9.58%; that for `CC(C)CNC(=O)c1cccc(NC(=O)CCc2ccccc2)c1` was 3.76%. Take `Cc1ccccc1OCc1nc(-c2cccnc2)no1`: the “hERG current change (%, negative = inhibition) at 1uM” value came out at 0.217%. As for `Cc1nc2cc(NC(=O)NCc3ccc4c(c3)OCO4)ccc2o1`, the figure is 4.78%; as for `Cn1c(=O)[nH]c(=O)c2c1nc(Br)n2Cc1ccccc1F`, 6.31%. On to `CC(C)C(NS(=O)(=O)c1cccs1)C(=O)N1CCC(C(N)=O)CC1` (centres unmarked), for which the “hERG current change (%, negative = inhibition) at 1uM” value is 13.1%.

Take `COc1ccc(Cl)cc1NS(=O)(=O)c1cc(Cl)ccc1OC`: the “hERG current change (%, negative = inhibition) at 1uM” value stood at 5.5%. In the case of `CC(C)Oc1ccc(S(=O)(=O)N2CCCCC2)cc1NC(=O)CN1C(=O)NC(C)(c2ccccc2)C1=O` (centres unmarked), the “hERG current change (%, negative = inhibition) at 1uM” value is reported as 0.576%.

For `Cc1ccc(S(=O)(=O)c2nc(-c3ccco3)oc2SCC(=O)NCC2CCCO2)cc1` (centres unmarked), the “hERG current change (%, negative = inhibition) at 1uM” value is 10.8%. Turning to `COc1cc(/C=C/C(=O)Nc2ccc(N3CCCCC3)c(S(=O)(=O)Nc3ccccc3Cl)c2)cc(OC)c1OC`, the “hERG current change (%, negative = inhibition) at 1uM” value was found to be 8.14%. `O=C(O)C(CO)(c1ccccc1)c1ccccc1`: the “hERG current change (%, negative = inhibition) at 1uM” value is listed as 1.48%. The value for `CCCOc1ccccc1C1NC(=O)NC(C)=C1C(=O)OCCOCC` (centres unmarked) was 12.7%. The value for `CCOC(=O)CN1C(c2ccc(O)cc2)Nc2ccc(Br)cc2C1c1ccccc1` (centres unmarked) was 11.5%; that for `S=C1NC2(CCCC2)N=C1c1ccccc1` was 6.21%; that for `Cc1ccc(C(=O)NCCc2nnc3c(C(F)(F)F)cc(Cl)cn23)o1` was 12.4%. For the compound `O=C1Nc2cc(C(=O)N3CCC4(CC3)OCCO4)ccc2S/C1=C\c1ccccc1`, the “hERG current change (%, negative = inhibition) at 1uM” value was determined as 27.2%. The value for `c1ccc(-n2nnnc2SCc2ccccn2)cc1` was 8.35%; that for `CS(=O)(=O)c1nc(S(=O)(=O)c2ccc(Cl)cc2)c(N2CCOCC2)s1` was 15.7%. Regarding `CC(=O)c1cccc(NC(=O)CSc2nnc(C(C)N(C)C)n2-c2ccc(F)cc2)c1` (centres unmarked), the “hERG current change (%, negative = inhibition) at 1uM” value is listed as 1.78%. On to `CCOC(=O)/C(O)=C(\C#N)c1nc2ccccc2[nH]1`, for which the “hERG current change (%, negative = inhibition) at 1uM” value came out at 12.8%. As for `COc1ccc(Nc2oc(COc3cccc(C)c3)nc2C#N)cc1`, the figure is 7.52%. In the case of `O=C(NCC(O)c1ccccc1)c1cccs1` (centres unmarked), the “hERG current change (%, negative = inhibition) at 1uM” value is -11.3%. Take `Cc1ccc(C(C2C(=O)CC(C)(C)CC2=O)C2C(=O)CC(C)(C)CC2=O)s1`: the “hERG current change (%, negative = inhibition) at 1uM” value came to 18.5%. Consider `CCOC(=O)[C@H](CCc1ccccc1)N[C@@H](C)C(=O)N1C(C(=O)O)C[C@@H]2CCC[C@@H]21` (some centres unmarked), for which the “hERG current change (%, negative = inhibition) at 1uM” value was determined as 17.5%.

For the compound `CCc1cccc(NC(=O)CCCN2C(=O)NC(C)(C)C2=O)c1`, the “hERG current change (%, negative = inhibition) at 1uM” value is 15.7%. Take `COc1ccc(-c2n[nH]c(=S)n2Cc2ccco2)cc1`: the “hERG current change (%, negative = inhibition) at 1uM” value is 4.89%. Turning to `CCOC(=O)C1=C(C)NC(C)=C(C(=O)OCC)C1C(=O)OCC(N)=O`, the “hERG current change (%, negative = inhibition) at 1uM” value is given as 2.4%. The value for `O=C1NC2=C(C(=O)c3ccccc32)C(c2ccccc2)N1` (centres unmarked) was 0.297%; that for `O=C(c1ccc(CS(=O)c2ccc(F)cc2)o1)N1CCN(C2CCCCC2)CC1` (centres unmarked) was 13.7%.

`Cc1cccc(N2CCN(S(=O)(=O)c3ccc4c(c3)CCN4C(=O)CCC(=O)O)CC2C)c1` (centres unmarked): the “hERG current change (%, negative = inhibition) at 1uM” value is given as 17.3%. The value for `CC(=O)Nc1cc(C(C)(C)C)c(O)c(C(C)(C)C)c1` was 13.4%. As for `CN(C)CCOC1c2ccccc2CCc2ccc3ccccc3c21.O=C(O)C(=O)O` (centres unmarked), the figure is 7.92%. With `Cc1ccc(S(=O)(=O)/N=C(/c2ccc(F)cc2)N2CCOCC2)cc1`, the “hERG current change (%, negative = inhibition) at 1uM” value worked out at 8.13%. As to `CC(=O)Nc1ccc(NC(=O)C2CCCN(C(=O)c3ccc(Cl)cc3)C2)cc1` (centres unmarked), the “hERG current change (%, negative = inhibition) at 1uM” value was found to be 10.9%.

With `COc1ccc(S(=O)(=O)CCc2nnc(NC(C)=O)s2)cc1`, the “hERG current change (%, negative = inhibition) at 1uM” value was determined as 18.7%. The value for `C=CCN1C(=O)c2ccccc2Sc2ccc(C(=O)N3CCN(C)CC3)cc21` was 9.34%.

For `Cc1nn(-c2ccccc2)c(Cl)c1/C=C(\CC(=O)O)c1nc2ccccc2s1`, the “hERG current change (%, negative = inhibition) at 1uM” value is listed as 2.95%. As for `COc1ccc([C@@H]2CC=C(C(=O)O)CN2S(=O)(=O)c2ccc(C)cc2)cc1OC`, the “hERG current change (%, negative = inhibition) at 1uM” value was 16.7%. `Cc1nc(Nc2ccc(S(=O)(=O)N3CCCCC3C)cc2)c2nnn(Cc3ccccc3)c2n1` (centres unmarked): the “hERG current change (%, negative = inhibition) at 1uM” value was found to be 13.2%. Consider `COc1ccccc1N1CCN(C(=O)CCNC(=O)Cn2ccc3ccccc3c2=O)CC1`, for which the “hERG current change (%, negative = inhibition) at 1uM” value was found to be 7.7%. Regarding `Cc1cc(OCC(=O)Nc2ccncc2)ccc1Cl`, the “hERG current change (%, negative = inhibition) at 1uM” value stood at 9.21%. The value for `O=P(Oc1ccccc1)(Oc1ccccc1)N1CCN(c2ccc(F)cc2)CC1` was 15.3%; that for `CC(=O)N1CCC2(CC1)CC(=O)c1cc(OCC(=O)NCc3ccc(C)cc3)ccc1O2` was -8.11%; that for `C/C(=N\NC(=S)NCc1ccccc1)c1ccccc1` was 7.41%. The value for `O=C(Nc1ccc(S(=O)(=O)NCC2CCCO2)cc1)c1ccccc1` (centres unmarked) was 11.2%; that for `CC(Cc1ccccc1)C(=O)N(C)Cc1ccccc1` (centres unmarked) was 10.2%. The value for `CC1CCCC(C)N1C(=O)CSc1nc2c(c(=O)n(C)c(=O)n2C)n1C` (centres unmarked) was 21.4%; that for `CCN(CC)S(=O)(=O)c1ccc(C)c(NC(=O)c2cc(C)oc2C)c1` was 9.88%. On to `Cl.N=c1c[n+](C2CCCCC2)[n-]o1`, for which the “hERG current change (%, negative = inhibition) at 1uM” value is given as 8.49%. As for `COc1ccccc1NC(=S)N(CCc1nc2cc(C)c(C)cc2[nH]1)Cc1cccnc1`, the “hERG current change (%, negative = inhibition) at 1uM” value is recorded as 2.58%.

As for `CCN(CC)Cc1c(C(=O)N/N=C/c2cccc3ccccc23)nnn1-c1nonc1N`, the “hERG current change (%, negative = inhibition) at 1uM” value worked out at 12.7%.

As to `CC1(C)Cc2c(sc(NC(=O)COc3ccc(Cl)cc3Cl)c2C(N)=O)C(C)(C)N1`, the “hERG current change (%, negative = inhibition) at 1uM” value came to 14.1%. As for `O=C(CN1C(=O)NC2(CCCC2)C1=O)OCCOc1ccc(Cl)cc1Cl`, the figure is 4.72%; as for `O=[N+]([O-])c1ccc(N/N=C/c2cccc(O)c2O)cc1`, 9.15%; as for `O=C(CNC(=O)c1sc2ccccc2c1Cl)NCc1cccc(C(F)(F)F)c1`, 2.56%. For `CCOC(=O)C(C)c1ccc2cc(OC)ccc2c1` (centres unmarked), the “hERG current change (%, negative = inhibition) at 1uM” value is on record as 5.65%. The value for `CCN1CCN(c2ccc(NC(=O)Cc3ccccc3)cc2)CC1` was -9.29%; that for `CCOc1ccc(S(=O)(=O)N2CCN(c3ncccn3)CC2)cc1` was 15.2%. As for `CC(C)=CC(=O)N1CCC(N2CCC(C(=O)NCC3CCCO3)CC2)CC1` (centres unmarked), the figure is 14.9%.

Turning to `COc1cc(/C=C/C(=O)O)ccc1OS(=O)(=O)c1c(C)cc(C)cc1C`, the “hERG current change (%, negative = inhibition) at 1uM” value is recorded as -10.7%. The value for `O=C(C[N+]12CCC(CC1)C(CO)C2)c1ccc(Br)cc1.[Br-]` (centres unmarked) was 0.666%. As for `Cc1c(NC(=S)N/N=C/c2ccc(N(C)C)cc2)c(=O)n(-c2ccccc2)n1C`, the figure is 18.1%; as for `CN(C(=O)Cc1c(C(=O)O)n(C)c2ccccc12)c1ccc(Cl)cc1`, 15.7%. As for `CC(=O)Nc1ccc(OCC(=O)N2CCC(Cc3ccccc3)CC2)cc1`, the figure is -3.3%; as for `O=C(CSc1nnc2n1CCCN2)c1ccc(Cl)cc1`, -1.26%; as for `CCOc1ccc2oc(C(=O)Nc3cc(C)ccn3)c(C)c2c1`, 11.9%.

Turning to `COc1ccc(NC(=O)N(CCCN2CCOCC2)Cc2cccnc2)c(OC)c1`, the “hERG current change (%, negative = inhibition) at 1uM” value came out at 6.25%. The value for `O=C(CCNC(=O)c1ccco1)NCCc1ccc(Cl)cc1` was 8.43%. Regarding `CCC1CN(C(=O)N2CCC(C(=O)NCc3cccc(F)c3)CC2)c2ccccc2O1` (centres unmarked), the “hERG current change (%, negative = inhibition) at 1uM” value came to 6.6%. The value for `Cc1ccc(C)c(OCC(=O)N/N=C\c2cccn2C)c1` was 14.7%; that for `CCOc1cnn(-c2ccccc2)c(=O)c1Cl` was 9.25%; that for `CN(C)CCCNC(=O)C1(O)c2cc(Br)ccc2NC(=O)N1c1ccc(Cl)cc1` (centres unmarked) was 10.4%.

Turning to `O=C1Nc2ccccc2/C1=N/N=C/c1cccc(O)c1`, the “hERG current change (%, negative = inhibition) at 1uM” value was determined as 11.5%. The value for `Cc1cc2oc(=O)cc(COC(=O)c3n[nH]c4ccccc34)c2cc1C` was 7.84%; that for `O=C(COc1ccc(Br)cc1Cl)NC(=O)NC1CCCC1` was 10.2%.

For `COc1ccc(OC)c(S(=O)(=O)N2CCC(C(=O)NCc3ccccc3OC)CC2)c1`, the “hERG current change (%, negative = inhibition) at 1uM” value is 3.09%.

Regarding `O=C(NC1CC1)c1cc2c(s1)-c1ccccc1OC2`, the “hERG current change (%, negative = inhibition) at 1uM” value was found to be 10.2%. As to `COC(=O)C(CSCc1ccccc1)NC(=O)CSc1nc(N)cc(=O)[nH]1` (centres unmarked), the “hERG current change (%, negative = inhibition) at 1uM” value was 20.8%.

In the case of `Cc1cc(C)c2[nH]c(=O)c(C(c3nnnn3Cc3ccc4c(c3)OCO4)N3CCCCC3)cc2c1` (centres unmarked), the “hERG current change (%, negative = inhibition) at 1uM” value is recorded as 17.4%. As for `CC1CN(c2nc3c(c(=O)n(Cc4ccc(Cl)cc4)c(=O)n3C)n2C)CC(C)O1` (centres unmarked), the figure is -0.562%; as for `CCOC(=O)c1ccc(NC(=S)N2CCSC2c2ccc(Br)cc2)cc1` (centres unmarked), 12.7%. As to `CSc1sc(C(=O)N2CCCCC2)c(-c2cccs2)c1C#N`, the “hERG current change (%, negative = inhibition) at 1uM” value came to 7.03%. `O=[N+]([O-])c1cccnc1N1CCC(c2cc(-c3ccc(Cl)cc3Cl)n[nH]2)CC1`: the “hERG current change (%, negative = inhibition) at 1uM” value is -5.66%.
